Measurements: US20190169308A1 (ALLIGATOR BIOSCIENCE, published 2019)

T1: Human 5T4 (produced in-house) (human, UniProt Q13641 32-355, limits assumed)
T1 sequence (looked up): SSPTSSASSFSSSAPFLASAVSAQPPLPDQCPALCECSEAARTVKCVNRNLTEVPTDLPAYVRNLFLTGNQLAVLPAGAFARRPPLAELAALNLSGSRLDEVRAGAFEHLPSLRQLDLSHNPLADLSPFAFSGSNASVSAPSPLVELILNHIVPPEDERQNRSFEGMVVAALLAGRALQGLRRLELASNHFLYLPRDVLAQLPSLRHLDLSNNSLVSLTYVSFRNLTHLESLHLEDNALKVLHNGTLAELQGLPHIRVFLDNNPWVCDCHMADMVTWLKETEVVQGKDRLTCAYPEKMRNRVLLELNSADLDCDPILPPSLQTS

T2: cynomolgus 5T4 on transfected CHO cells (Macaca mulatta (cynomolgus), UniProt F7CT46 35-420)
T2 construct: also called cyno5T4; cy5T4
T2 sequence: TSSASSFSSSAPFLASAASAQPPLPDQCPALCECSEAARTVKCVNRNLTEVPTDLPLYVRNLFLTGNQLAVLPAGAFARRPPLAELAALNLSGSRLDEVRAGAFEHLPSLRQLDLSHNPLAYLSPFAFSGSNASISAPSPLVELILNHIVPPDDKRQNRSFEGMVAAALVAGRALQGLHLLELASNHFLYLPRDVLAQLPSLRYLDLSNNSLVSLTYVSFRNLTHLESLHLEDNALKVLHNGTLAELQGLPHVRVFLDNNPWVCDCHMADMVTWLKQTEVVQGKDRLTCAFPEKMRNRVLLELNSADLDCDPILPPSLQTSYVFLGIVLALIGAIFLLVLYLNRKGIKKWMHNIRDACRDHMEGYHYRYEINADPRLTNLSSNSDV

B1: 1618-1210LO3 (bispecific antibody, human IgG1, kappa)
heavy: EVQLLESGGGLVQPGGSLRLSCAASGFTFSYGSMYWVRQAPGKGLEWVSSISSGSGSTYYADSVKGRFTISRDNSKNTLYLQMNSLRAEDTAVYYCARSSYYGSYYSIDYWGQGTLVTVSS[no letters for human IgG1 constant region with changes]GGGGSGGGGSEVQLLESGGGLVQPGGSLRLSCAASGFDFDSYAMSWVRQAPGKGLEWVSAISGSGGSTYYADSVKGRFTISRDNSKNTLYLQMNSLRAEDTAVYYCARYYGGYYSAWMDYWGQGTLVTVSSGGGGSGGGGSGGGGSDIQMTQSPSSLSASVGDRVTITCRASQSIRQALNWYQQKPGKAPKLLIYAASSLHSGVPSRFSGSGSGTDFTLTISSLQPEDFATYYCQQTYGYLHTFGQGTKLEIK
light: DIQMTQSPSSLSASVGDRVTITCRASQSISSYLNWYQQKPGKAPKLLIYAASSLQSGVPSRFSGSGSGTDFTLTISSLQPEDFATYYCQQYYDNLPTFGQGTKLEIKRTVAAPSVFIFPPSDEQLKSGTASVVCLLNNFYPREAKVQWKVDNALQSGNSQESVTEQDSKDSTYSLSSTLTLSKADYEKHKVYACEVTHQGLSSPVTKSFNRGEC
B2: 1618-1210LO2 (bispecific antibody, human IgG1, kappa)
heavy: EVQLLESGGGLVQPGGSLRLSCAASGFTFSYGSMYWVRQAPGKGLEWVSSISSGSGSTYYADSVKGRFTISRDNSKNTLYLQMNSLRAEDTAVYYCARSSYYGSYYSIDYWGQGTLVTVSS[no letters for human IgG1 constant region with changes]GGGGSGGGGSEVQLLESGGGLVQPGGSLRLSCAASGFDFDSYAMSWVRQAPGKGLEWVSAISGRGGSTYYADSVKGRFTISRDNSKNTLYLQMNSLRAEDTAVYYCARYYGGYYSAWMDYWGQGTLVTVSSGGGGSGGGGSGGGGSDIQMTQSPSSLSASVGDRVTITCRASQSIRSALNWYQQKPGKAPKLLIYAASSLQSGVPSRFSGSGSGTDFTLTISSLQPEDFATYYCQQTYGYLHTFGQGTKLEIK
light: DIQMTQSPSSLSASVGDRVTITCRASQSISSYLNWYQQKPGKAPKLLIYAASSLQSGVPSRFSGSGSGTDFTLTISSLQPEDFATYYCQQYYDNLPTFGQGTKLEIKRTVAAPSVFIFPPSDEQLKSGTASVVCLLNNFYPREAKVQWKVDNALQSGNSQESVTEQDSKDSTYSLSSTLTLSKADYEKHKVYACEVTHQGLSSPVTKSFNRGEC
B3: 1618-1210LO4 (bispecific antibody, human IgG1, kappa)
heavy: EVQLLESGGGLVQPGGSLRLSCAASGFTFSYGSMYWVRQAPGKGLEWVSSISSGSGSTYYADSVKGRFTISRDNSKNTLYLQMNSLRAEDTAVYYCARSSYYGSYYSIDYWGQGTLVTVSS[no letters for human IgG1 constant region with changes]GGGGSGGGGSEVQLLESGGGLVQPGGSLRLSCAASGFDFDSYAMSWVRQAPGKGLEWVSAISGSGGSTYYADSVKGRFTISRDNSKNTLYLQMNSLRAEDTAVYYCARYYGGYYSAWMDYWGQGTLVTVSSGGGGSGGGGSGGGGSDIQMTQSPSSLSASVGDRVTITCRASQSISQALNWYQQKPGKAPKLLIYAASSLHSGVPSRFSGSGSGTDFTLTISSLQPEDFATYYCQQTYGYLHTFGQGTKLEIK
light: DIQMTQSPSSLSASVGDRVTITCRASQSISSYLNWYQQKPGKAPKLLIYAASSLQSGVPSRFSGSGSGTDFTLTISSLQPEDFATYYCQQYYDNLPTFGQGTKLEIKRTVAAPSVFIFPPSDEQLKSGTASVVCLLNNFYPREAKVQWKVDNALQSGNSQESVTEQDSKDSTYSLSSTLTLSKADYEKHKVYACEVTHQGLSSPVTKSFNRGEC
B4: 1618-1210LO5 (bispecific antibody, human IgG1, kappa)
heavy: EVQLLESGGGLVQPGGSLRLSCAASGFTFSYGSMYWVRQAPGKGLEWVSSISSGSGSTYYADSVKGRFTISRDNSKNTLYLQMNSLRAEDTAVYYCARSSYYGSYYSIDYWGQGTLVTVSS[no letters for human IgG1 constant region with changes]GGGGSGGGGSEVQLLESGGGLVQPGGSLRLSCAASGFDFSSYAMSWVRQAPGKGLEWVSAISGSGGSTYYADSVKGRFTISRDNSKNTLYLQMNSLRAEDTAVYYCARYYGGYYSAWMDYWGQGTLVTVSSGGGGSGGGGSGGGGSDIQMTQSPSSLSASVGDRVTITCRASQSIRQALNWYQQKPGKAPKLLIYAADSLHSGVPSRFSGSGSGTDFTLTISSLQPEDFATYYCQQTYGYLHTFGQGTKLEIK
light: DIQMTQSPSSLSASVGDRVTITCRASQSISSYLNWYQQKPGKAPKLLIYAASSLQSGVPSRFSGSGSGTDFTLTISSLQPEDFATYYCQQYYDNLPTFGQGTKLEIKRTVAAPSVFIFPPSDEQLKSGTASVVCLLNNFYPREAKVQWKVDNALQSGNSQESVTEQDSKDSTYSLSSTLTLSKADYEKHKVYACEVTHQGLSSPVTKSFNRGEC
B5: 1210-1618LO1 (bispecific antibody, human IgG1, kappa)
heavy: [no letters for about 100 residues]YYGGYYSAWMDYWGQGTLVTVSS[no letters for human IgG1 constant region with changes]GGGGSGGGGSEVQLLESGGGLVQPGGSLRLSCAASGFTFDYGSMYWVRQAPGKGLEWVSSISSGSGSTYYADSVKGRFTISRDNSKNTLYLQMNSLRAEDTAVYYCARSSYYGSYYSIDYWGQGTLVTVSSGGGGSGGGGSGGGGSDIQMTQSPSSLSASVGDRVTITCRASQSISQYLNWYQQKPGKAPKLLIYGASSLQSGVPSRFSGSGSGTDFTLTISSLQPEDFATYYCQQYYDNLPTFGQGTKLEIK
light: DIQMTQSPSSLSASVGDRVTITCRASQSISSYLNWYQQKPGKAPKLLIYAASSLQSGVPSRFSGSGSGTDFTLTISSLQPEDFATYYCQQTYGYLHTFGQGTKLEIKRTVAAPSVFIFPPSDEQLKSGTASVVCLLNNFYPREAKVQWKVDNALQSGNSQESVTEQDSKDSTYSLSSTLTLSKADYEKHKVYACEVTHQGLSSPVTKSFNRGEC
B6: 1210-1618LO3 (bispecific antibody, human IgG1, kappa)
heavy: [no letters for about 100 residues]YYGGYYSAWMDYWGQGTLVTVSS[no letters for human IgG1 constant region with changes]GGGGSGGGGSEVQLLESGGGLVQPGGSLRLSCAASGFTFSYGSMYWVRQAPGKGLEWVSSISSGSGSTHYADSVKGRFTISRDNSKNTLYLQMNSLRAEDTAVYYCARSSYYGSYYSIDYWGQGTLVTVSSGGGGSGGGGSGGGGSDIQMTQSPSSLSASVGDRVTITCRASQSIRQYLNWYQQKPGKAPKLLIYGASSLHSGVPSRFSGSGSGTDFTLTISSLQPEDFATYYCQQYYDNLPTFGQGTKLEIK
light: DIQMTQSPSSLSASVGDRVTITCRASQSISSYLNWYQQKPGKAPKLLIYAASSLQSGVPSRFSGSGSGTDFTLTISSLQPEDFATYYCQQTYGYLHTFGQGTKLEIKRTVAAPSVFIFPPSDEQLKSGTASVVCLLNNFYPREAKVQWKVDNALQSGNSQESVTEQDSKDSTYSLSSTLTLSKADYEKHKVYACEVTHQGLSSPVTKSFNRGEC
B7: 1618-1210LO1 (bispecific antibody, human IgG1, kappa)
heavy: EVQLLESGGGLVQPGGSLRLSCAASGFTFSYGSMYWVRQAPGKGLEWVSSISSGSGSTYYADSVKGRFTISRDNSKNTLYLQMNSLRAEDTAVYYCARSSYYGSYYSIDYWGQGTLVTVSS[no letters for human IgG1 constant region with changes]GGGGSGGGGSEVQLLESGGGLVQPGGSLRLSCAASGFDFESYAMSWVRQAPGKGLEWVSAISGSGGSTYYADSVKGRFTISRDNSKNTLYLQMNSLRAEDTAVYYCARYYGGYYSAWMDYWGQGTLVTVSSGGGGSGGGGSGGGGSDIQMTQSPSSLSASVGDRVTITCRASQSIRSALNWYQQKPGKAPKLLIYAASSLQSGVPSRFSGSGSGTDFTLTISSLQPEDFATYYCQQTYGYLHTFGQGTKLEIK
light: DIQMTQSPSSLSASVGDRVTITCRASQSISSYLNWYQQKPGKAPKLLIYAASSLQSGVPSRFSGSGSGTDFTLTISSLQPEDFATYYCQQYYDNLPTFGQGTKLEIKRTVAAPSVFIFPPSDEQLKSGTASVVCLLNNFYPREAKVQWKVDNALQSGNSQESVTEQDSKDSTYSLSSTLTLSKADYEKHKVYACEVTHQGLSSPVTKSFNRGEC
notes: Morrison format

Key:
[1] = target: T1, Human 5T4 (produced in-house); test: BLI Octet, bsAb on anti-Fab-CH1 tips, 5T4 as analyte
[2] = target: T2, cynomolgus 5T4 on transfected CHO cells; test: flow cytometry on CHO-K cells transfected with cynomolgus 5T4, anti-IgG(Fc)-PE, MFI
[3] = target: T3, recombinant human CD137-Fc (R&D #838-4B) (human, UniProt Q07011 24-186); test: BLI Octet, bsAb on anti-Fab-CH1 tips, CD137-Fc as analyte
T3 construct: bought; also called CD137 (R&D #838-4B); not shown: Fc part, bought reagent, not described

[4] = target: T4, cynomolgus CD137 on transfected CHO cells (cynomolgus; human); test: flow cytometry on CHO-K cells transfected with cynomolgus CD137, anti-IgG(Fc)-PE, MFI
T4 construct: extracellular domain;domain: transmembrane and intracellular part; also called CHO-cyCD137; CHOcynoCD137

T3 sequence (Q07011 24-186 limits assumed): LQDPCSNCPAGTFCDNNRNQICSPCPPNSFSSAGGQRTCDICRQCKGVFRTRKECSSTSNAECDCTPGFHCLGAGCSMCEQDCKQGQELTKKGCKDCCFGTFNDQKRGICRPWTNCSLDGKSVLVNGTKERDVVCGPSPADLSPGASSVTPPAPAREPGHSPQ

Binder	Kd [1]	koff [1]	kon [1]	EC50 (read off the curve) [2]	Kd [3]	koff [3]	kon [3]	EC50 (read off the curve) [4]	binding result [4]
B1	0.349 nM	7.4e-05 s⁻¹	212000 M⁻¹ s⁻¹	~1 nM					
B2	0.27 nM	4.5e-05 s⁻¹	167000 M⁻¹ s⁻¹	~1 nM					
B3	0.382 nM	7.73e-05 s⁻¹	202000 M⁻¹ s⁻¹	~1 nM					
B4	0.467 nM	7.65e-05 s⁻¹	164000 M⁻¹ s⁻¹	~2 nM					
B5					1.58 nM	0.000344 s⁻¹	218000 M⁻¹ s⁻¹	~2 nM	
B6					1.9 nM	0.000654 s⁻¹	345000 M⁻¹ s⁻¹		binds
B7	0.147 nM	3.29e-05 s⁻¹	223000 M⁻¹ s⁻¹	~1 nM					
